Data taken from PubChem BioAssay AID463173 (ICCB-Longwood Screening Facility, Harvard Medical School, 2010).
In all, about 52,000 compounds went through this assay and about 4,300 (8.3%) were called active. No stated cut-off is given here; in the data, active means survival mostly below about 52% (no sharp cut-off); inactive means mostly above about 56%. The list shows a part of the results.

Each compound was assayed on DeltatarO mutant (assay: growth inhibition of S. aureus wild type versus tarO mutant, primary screen, teichoic acid synthesis inhibitors, RN4220, OD600 (AID 463173)). Conditions: OD600, 18 h, hits give low values, screened at 18.75 µg/mL (by protocol).
`COc1cc(C2c3c(-c4ccccc4O)n[nH]c3C(=O)N2CCO)ccc1OCc1ccccc1` (stereo unspecified) was tested, and the survival was inactive: 77%. With `COc1cccc(CNC(=O)c2ccc3nc(-c4ccc(F)cc4)c(-c4ccc(F)cc4)nc3c2)c1` the survival was inactive: 99%. For `CC(=O)c1cccc(NC(=O)c2nc3ccccc3n(C)c2=O)c1`, the survival was inactive: 117%. `CCOC(=O)c1ccccc1NC(=O)c1c2c(nc3ccccc13)C(=O)N(C1CCCCC1)C2` was tested, and the survival was inactive: 75%. With `O=C(NCc1ccco1)C12CC3CC(CC(C3)C1)C2` the survival was inactive: 88%. With `COc1ccc(-c2nnc(SCc3cc(=O)c4cc(C)cc(C)c4[nH]3)n2C)cc1` the survival was inactive: 104%. In the case of `O=C(c1cccs1)c1cn(CCOc2ccccc2F)c2ccccc12`, the survival is reported as inactive: 104%. In the case of `CC1=C(C(=O)Nc2ccccc2C)C(c2ccncc2)n2nc(SCc3ccccc3Cl)nc2N1` (stereo unspecified), the survival is reported as inactive: 62%. With `COc1ccc(S(=O)(=O)Nc2cccc(-c3ccc(N4CCC(C)CC4)nn3)c2)cc1OC` the survival was inactive: 72%. With `Cc1cccc(NS(=O)(=O)c2ccccc2)n1` the survival was inactive: 103%. With `Cc1cccc(-c2noc(-c3ccccc3NC(=O)C3CC(=O)N(c4ccccc4C)C3)n2)c1` (stereo unspecified) the survival was inactive: 62%. `CCn1c(=O)c2cc(C(=O)Nc3cc(OC)c(OC)c(OC)c3)sc2c2ccccc21` was tested, and the survival was active: 41%. `Cn1ccc2cc(S(=O)(=O)N3CCCC(C(=O)NCc4ccccc4)C3)ccc21` (stereo unspecified) was tested, and the survival was inactive: 103%. In the case of `c1cc(CNC2CCCCC2)co1`, the survival is reported as inactive: 72%. In the case of `COc1ccc(C(=O)Nc2nc3nc(C)c(Cc4ccccc4)c(=O)n3[nH]2)cc1OC`, the survival is reported as inactive: 94%. With `Cc1ccc(CNC(=O)COCc2cc(-c3cccs3)on2)cc1` the survival was inactive: 69%. In the case of `CCOc1ccc(CNC(=O)C2CCN(S(=O)(=O)N3CCC(C)CC3)CC2)cc1OC`, the survival is reported as inactive: 75%. `CC1=C(C(=O)Nc2cccnc2)C(c2cccc(Br)c2)n2nc(SCc3ccccc3)nc2N1` (stereo unspecified) was tested, and the survival was inactive: 69%. In the case of `Cc1cccc(CNS(=O)(=O)c2ccc(-c3cnc(C4CC4)o3)cc2)c1`, the survival is reported as active: 52%. With `COc1cc(NC(=O)C2CCN(c3cnc4ccccc4n3)CC2)cc(OC)c1OC` the survival was active: -5%. In the case of `CCCc1cc(=O)n2[nH]c(NC(=O)c3ccc(C(C)(C)C)cc3)nc2n1`, the survival is reported as inactive: 110%. For `CC(=O)c1cccc(NC(=O)CN2C=NS(=O)(=O)c3ccc(C)cc32)c1`, the survival was inactive: 89%. With `CCCn1c(SCc2nc3ccccc3[nH]2)nc2ccccc21` the survival was inactive: 95%. `CCc1nnc(SCc2c(F)cccc2Cl)c2cc3sccc3n12` was tested, and the survival was inactive: 94%. `CC(C)CCNC(=O)c1ccc2c(c1)NC(=O)C(CS(=O)(=O)Cc1ccc(F)cc1)N2` (stereo unspecified) was tested, and the survival was inactive: 80%. `Cc1ccc(NC(=O)Cn2cc(C(=O)C3CC3)c3ccccc32)c(C)c1` was tested, and the survival was inactive: 90%. For `CC1=C(C(=O)N2CCN(c3cc(C)ccc3C)CC2)C2(CCC(C)CC2)OC1=O` (stereo unspecified), the survival was inactive: 73%. With `COc1ccc(C(C(=O)NCc2ccccc2)N(C(=O)Cn2nnc3ccccc32)c2cccc(OC)c2)cc1` (stereo unspecified) the survival was inactive: 50%. With `O=C(COc1ccc(F)cc1)OCc1cc(=O)n2nc(C3CCCCC3)sc2n1` the survival was inactive: 86%. With `CC12CC(c3ccccc3O1)C(C(=O)NCc1ccccc1)C(=O)N2` (stereo unspecified) the survival was inactive: 92%. For `Cc1cc(-c2ccc(C)c(S(=O)(=O)NC(c3cccs3)C(C)C)c2)on1` (stereo unspecified), the survival was inactive: 71%. In the case of `CC1(C)CC(=O)C2=C(C1)OC(N)=C(C#N)C21CCCCC1`, the survival is reported as inactive: 98%. With `COc1ccc(NC(=O)CCSc2nc(-c3ccc(OC)cc3)cc(C(F)(F)F)n2)cc1` the survival was inactive: 70%. In the case of `COc1cccc(NC(=O)CC2NCCNC2=O)c1` (stereo unspecified), the survival is reported as inactive: 84%. For `COc1ccc(C(=O)NCC(c2ccc(N(C)C)cc2)N2CCc3ccccc32)c(OC)c1` (stereo unspecified), the survival was inactive: 92%. `COc1ccc(S(=O)(=O)NCC(c2ccco2)N2CCOCC2)cc1OC` (stereo unspecified) was tested, and the survival was inactive: 67%. With `CCc1cc(C(=O)Nc2cnn(Cc3ccccc3C)c2)no1` the survival was inactive: 56%. With `Cc1ccc(NC(=O)CCc2c(C)nc3cc(-c4ccccc4)nn3c2C)cc1F` the survival was inactive: 56%. In the case of `COc1ccc(-c2nc3c(C#N)c[nH]n3c2NC2CCCC2)c(OC)c1`, the survival is reported as inactive: 65%. For `Cc1ccc2c(=O)cc(C(=O)Nc3sc4c(c3C(=O)NCc3cccnc3)CCCC4)oc2c1C`, the survival was inactive: 110%. For `Fc1ccc(-c2noc3ncnc(NCCCN4CCN(c5ccccc5)CC4)c23)cc1`, the survival was inactive: 84%. For `O=c1oc2c(CN3CCN(CCO)CC3)c(O)ccc2cc1-c1ccccc1`, the survival was inactive: 67%. `COc1ccc(Cn2ccc3nc(C)c(C(=O)NCc4ccc(F)cc4)cc3c2=O)cc1` was tested, and the survival was inactive: 103%. In the case of `CCOC(=O)c1c(C)[nH]c(C)c1S(=O)(=O)N1CCCC(C(=O)N2CCN(c3ccccc3)CC2)C1` (stereo unspecified), the survival is reported as inactive: 86%. For `CCOCCc1nn2c(=O)cc(COC(=O)C3CCCCC3)nc2s1`, the survival was inactive: 88%. With `Cc1cccn2c(=O)c3cc(C(=O)NC(C)c4ccccc4)c(=N)n(CCCO)c3nc12` (stereo unspecified) the survival was inactive: 92%. In the case of `Cc1ccc2c(=O)cc(C(=O)Nc3cccc(C(F)(F)F)c3)oc2c1C`, the survival is reported as inactive: 73%. In the case of `Cc1ccc(NC(=O)CSc2nnc3scc(-c4ccccc4)n23)cc1`, the survival is reported as active: 15%. In the case of `O=C(O)c1nnc(Cl)c2ccccc12`, the survival is reported as inactive: 91%. `COC(=O)c1ccc(OCC2c3cc(OC)c(OC)cc3CCN2C(=O)c2ccc(F)cc2)cc1` (stereo unspecified) was tested, and the survival was inactive: 76%. `O=C(Cn1nnc(-c2ccccc2Cl)n1)Nc1ccc(Br)cc1` was tested, and the survival was inactive: 62%. `COCCCNc1oc(-c2ccc(COc3ccc(Cl)cc3)o2)nc1C#N` was tested, and the survival was inactive: 51%. With `Cc1nc2cc(N3CCN(C)CC3)c(NC(=O)C3CC3)cc2c(=O)n1Cc1ccccc1` the survival was inactive: 79%. `COc1ccc(CNC(=O)C2CCN(c3nc4ccccc4[nH]3)CC2)cc1OC` was tested, and the survival was inactive: 55%. In the case of `O=C(Nc1sc2c(c1C(=O)NCC1CCCO1)CCC2)c1cc(=O)c2ccccc2o1` (stereo unspecified), the survival is reported as inactive: 66%. In the case of `CCCCCNC(=O)CCCCCn1c(=O)[nH]c2ccsc2c1=O`, the survival is reported as inactive: 81%. In the case of `CCOc1ccc(C2CC(=O)Nc3c2c(=O)nc(SCc2ccccc2C)n3C)cc1OC` (stereo unspecified), the survival is reported as active: 42%. In the case of `CCn1cc(C(=O)OCC(=O)Nc2cccc(C(C)=O)c2)c(=O)c2ccc(C)nc21`, the survival is reported as inactive: 84%. With `CCOC(=O)c1c(S(=O)(=O)N2CCCC(C(=O)Nc3cccc(C)n3)C2)c(C)n(C)c1C` (stereo unspecified) the survival was inactive: 87%. For `COc1ccc(Cn2c(=O)c3oc4ccccc4c3n(Cc3ccc(Cl)cc3)c2=O)cc1`, the survival was inactive: 107%. `CCN(CC)CCCNC(=O)c1nn(C)c2c1CS(=O)(=O)c1ccccc1-2` was tested, and the survival was inactive: 61%. `Cc1ccccc1Cn1c(CN2CCC(C(=O)NCCc3ccccc3)CC2)cc2ccccc21` was tested, and the survival was inactive: 94%. For `CCC(=O)Nc1cccc(C(=O)OCc2cc(=O)n3nc(CC)sc3n2)c1`, the survival was inactive: 96%. In the case of `COc1ccc2c(c1)c1c(c(=O)n(CCc3ccccc3)c(=O)n1Cc1ccc(F)cc1)n2C`, the survival is reported as active: 6%. For `CCN(CC)c1nc2ccccc2nc1C(=O)Nc1cccc(C(C)=O)c1`, the survival was inactive: 73%. For `COc1ccc(NC(=O)c2c(-c3ccc(C)cc3)nnc3ccccc23)c(OC)c1`, the survival was inactive: 81%. In the case of `COc1ccc2c(c1)c1c(c(=O)n(-c3ccc(F)c(Cl)c3)c(=O)n1Cc1ccccc1C)n2C`, the survival is reported as inactive: 83%. `CCn1c(O)c(/C=C/c2nc3ccccc3n2CC)sc1=S` was tested, and the survival was inactive: 78%. For `CCSC1=NC2(CCN(C(=O)NC3CCCCC3)CC2)N=C1c1ccc(Cl)cc1`, the survival was inactive: 69%. In the case of `CCOc1ccc(CN2CCc3nc(Nc4ccc(OC)cc4OC)ncc3C2)cc1`, the survival is reported as inactive: 99%. In the case of `O=C(NCCCN1CCN(c2ccc(F)cc2)CC1)c1ccc2nc(Cc3ccccc3)oc2c1`, the survival is reported as inactive: 115%. `Cc1cc(C)nc(NC(C)(C)C(=O)O)n1` was tested, and the survival was inactive: 67%. `CCc1nn(Cc2ccc(Cl)cc2)c(=O)c2cc3cc(C)ccc3n12` was tested, and the survival was inactive: 94%. In the case of `Cc1ccc(NC(=O)c2sc3nc4c(cc3c2N)CN(Cc2ccccc2)CC4)cc1`, the survival is reported as inactive: 110%. `O=c1[nH]cnc2c1[nH]c1ccccc12` was tested, and the survival was inactive: 102%. With `CCN1C(=O)c2ccccc2Sc2ccc(NC(=O)c3ccc(Cl)cc3)cc21` the survival was inactive: 97%. With `Cc1oc2ncn(C)c(=O)c2c1C(=O)N1CCN(c2ccccc2F)CC1` the survival was inactive: 87%. For `Nc1ccc(N2CCCC2)cc1`, the survival was inactive: 86%. With `CCc1ccccc1NC(=O)c1cnc2sc(N3CCCC3)nn2c1=O` the survival was inactive: 104%. For `O=C(Nc1ccc(-c2cn3cccnc3n2)cc1)c1cc(Br)ccc1Cl`, the survival was inactive: 105%. With `Cc1nnc(N2CCCC(C(=O)NCCc3ccc(Cl)cc3)C2)c2nn(-c3ccccc3)c(C)c12` (stereo unspecified) the survival was inactive: 83%. For `CC(=O)N1CC=C2C(C#N)=C(N)C(C#N)(C#N)C(Cc3ccccc3)C2C1` (stereo unspecified), the survival was inactive: 90%. In the case of `O=C(Nc1cccc(Cl)c1)c1cc2c(=O)[nH]c3ccccc3c2s1`, the survival is reported as inactive: 47%. With `Cc1cccc(N2CCN(C(=O)CCn3c(=O)c4cccn4c4cccnc43)CC2C)c1` (stereo unspecified) the survival was inactive: 63%. In the case of `COc1cccc(C(=O)Nc2cccc(-c3cn4c(C)csc4n3)c2)c1OC`, the survival is reported as inactive: 108%. For `Cc1cccc(-c2nc3c4ccccc4nc(N4CCN(c5cc(C)ccc5C)CC4)n3n2)c1`, the survival was inactive: 121%. In the case of `Cc1cn2c(=O)cc(COC(=O)COc3ccccc3C)nc2s1`, the survival is reported as inactive: 76%. For `CCOC(=O)c1cnc2c(C)c(C)ccc2c1NCCCCCO`, the survival was inactive: 84%. With `CCOC(=O)c1c(C)[nH]c(CCC(=O)NCc2ccc(N(C)C)cc2)c1C` the survival was inactive: 83%. For `O=c1cc(-c2ccccc2)n2c(SCc3ccc(F)cc3)nnc2[nH]1`, the survival was inactive: 73%. For `O=c1oc2ccccc2cc1-c1cn2cc(Cc3ccc(Cl)cc3)sc2n1`, the survival was inactive: 84%.
